# Source: the RNAGym collection of RNA variant scans (doi:10.7554/elife.90254)
# The source gives no read counts; variants with many changes may rest on few reads.
# B1: LINE1-full (parent)
# chain: UACGUAGGUGGUUUUCCCCUGAUAGUGCUAAGGGGGCCUGGAAGUUUGGACUGGGCAGAGCUCAACACAGCGUGGCAAAGUGGCUGUGGCUAGACUGCCUCUCUGGAUUCCUCGUCACUCAGCAGGGCAUCUCUGAGAGAAAUGCC
# Variants of: B1
# Assay: self-cleavage, relative activity (ratio to wild type); higher = more cleavage; in vitro, sequencing; the parent is a self-cleaving ribozyme
row,Variant,self-cleavage
1,A43G U130C A142G,2.14
2,A43U A57G U62A U91C U134C,0.48
3,A43U A57U U62C A94G A117C G126A,0.11
4,A43U A64U G83U A142G,0.13
5,A43U A65G U132C,0
6,A43U A67G A141G,0.64
7,A43U A69U U85A,0.43
8,A43U A78G U87A A129G C146A,0.1
9,A43U A107G A141G,0.67
10,A43U C110U U115A,1.26
11,A43U G55A U104A,0.07
12,A43U G58A A69U U85G U96C A117C A124G A142G,0
13,A43U U46A U52A U130C,0.76
14,A43U U62C U108C,0.11
15,A43U U73A G137U,1.01
16,A43U U73C A77U A138U,1.6
17,A43U U81C A121C,1.34
18,A43U U81C A121U U132C,1.89
19,A43U U87A U109G A117G U134A,0.07
20,A43U U91C G144C,0.42
21,A43U U108A A141G,1.67

row,Variant,self-cleavage
1,G44A A57G U132A,1.73
2,G44A A67U A77G,0.14
3,G44A A67U A79G C84U U85A U108C,0.02
4,G44A C66U A138U,0.05
5,G44A C71U G127U,1.03
6,G44A G49A C71U,0.65
7,G44A G82A C84U U115C,0.34
8,G44A U45C G122A,1.48
9,G44A U45C U100C A107G A124U,1.8
10,G44A U46A A77U U109A U112C A138G,1.17
11,G44A U73C A78G,1.87
12,G44A U108C A138G,2.24
13,G44U A69G A140G A142G,0.67
14,G44U G53C A64C A65U,0.11
15,U45A A57G A77G U81A C131U,0.54
16,U45A A57G A77U A142G,0.63
17,U45A A57G U81C,1.66
18,U45A A64G A142G,0.16
19,U45A A65U A79C U87A A142G,0.03
20,U45A A69U A107G,0.03
21,U45A A107G U134C,1.29

row,Variant,self-cleavage
1,U45A A121G U143C,1.51
2,U45A C56U A142G,0.25
3,U45A C63A U81A,0.05
4,U45A G48A U52A,1.21
5,U45A G53U U73C A124G,0.86
6,U45A G105U A121U C146U,1.64
7,U45A U46C A79G U102A A107U A124U,1.41
8,U45A U62A U104A,0.04
9,U45A U81A U85A,0.06
10,U45A U85C A94U U112A U134C,0
11,U45A U96C U130A,0.09
12,U45A U102C U132C,1.41
13,U45C A50C C113A A117G,2.13
14,U45C A50G U102C U143A,0
15,U45C A50G U132C,1.23
16,U45C A57G C95U C128U,0.11
17,U45C A57G U81A A94G,0.14
18,U45C A59G A77U,0.04
19,U45C A59G A140G,0.26
20,U45C A59G C68U,0.08
21,U45C A59G G74A,0.13

row,Variant,self-cleavage
1,U45C A65G U143A,0
2,U45C A65U U130C A140G,0.55
3,U45C A67G A141G,1.02
4,U45C A67G G126A A136G,0.53
5,U45C A69C U85C,0.57
6,U45C A69G A140G A141G,0
7,U45C A69G G72A G74A,0.3
8,U45C A77U U81C,0.61
9,U45C A78G A94U A138G,0.39
10,U45C A78G A129G,1.41
11,U45C A78G U85C,0.66
12,U45C A78G U134C,1.92
13,U45C A78U A92G,0.27
14,U45C A79G A129G,0.61
15,U45C A79G U109A G126A,0.55
16,U45C A92G A124G G126U,0.19
17,U45C A92G C95U A136G,0.03
18,U45C A117C A138G,0.61
19,U45C A129G G139U C145U,2.51
20,U45C A129G U143C,2.81
